Measured values reported in the supplement of paper PMC10126150.
Values marked as one replicate rest on one cluster of the flow cell; about a third of the high ones do not repeat.

Tested on: ATP
Assay: switch fluorescence ratio, 500 uM ATP over buffer (Cy3 cluster intensity, sum of 5 cycles each) (fold (ratio)); higher = stronger signal-on switching upon ATP binding; sequences stand for … in TCGTCGGCAGCGTCAGATGTGTATAAGAGACAGTTTTTTTTTTTTTTTTTTTTTTTTT…TC
Conditions: aptamer strand: ATP DNA aptamer (quencher-CACCTGGGGGAGTATTGCGGAGGAAGG + anchor), 100 nM annealed; ATP concentration: 500 uM; one replicate
In short: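 Cy3-labelled switching-strand clusters on a modified Illumina MiSeq flow-cell were annealed to 100 nM quencher-labelled ATP aptamer, imaged in selection buffer, then imaged after 15 min with 500 uM ATP at 22 °C. Five buffer/ATP cycles ran, with NaOH stripping and re-annealing between them. The fluorescence ratio is summed target-cycle over summed buffer-cycle Cy3 intensity per cluster, averaged per switch-domain sequence. Clusters outside 100-1000 RFU were excluded.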
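Note: ATP exposure 15 min at 22 °C before imaging.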

| Sequence | switch fluorescence ratio |
| --- | --- |
| CTTGTACGA | 1.02 |
| CTTGTGACGG | 1.02 |
| CTTGTGATGC | 1.63 |
| CTTGTGGGCT | 1.01 |
| CTTGTGTAAG | 1.02 |
| CTTGTTATG | 0.975 |
| CTTGTTCTTG | 0.985 |
| CTTGTTGGCC | 1 |
| CTTTAAGAAC | 0.988 |
| CTTTAATACC | 1.04 |
| CTTTACGCCA | 1.22 |
| CTTTAGATTT | 0.971 |
| CTTTAGGACT | 1.02 |
| CTTTAGGCGG | 0.984 |
| CTTTCAACGA | 0.988 |
| CTTTCAGAGG | 0.996 |
| CTTTCAGATA | 1.04 |
| CTTTCATGCA | 0.995 |
| CTTTCGTTGG | 0.979 |
| CTTTCTCGTC | 1.04 |
| CTTTGAACTA | 1 |
| CTTTGTCGAA | 1.01 |
| CTTTGTTT | 0.963 |
| CTTTTAATCA | 0.977 |
| CTTTTAGGTC | 0.983 |

| Sequence | switch fluorescence ratio |
| --- | --- |
| CTTTTCTTCT | 1.04 |
| CTTTTGGAGG | 0.987 |
| CTTTTGGGAT | 1.01 |
| CTTTTGTCCG | 1.06 |
| CTTTTTACTA | 1.03 |
| GAAAAAAAGT | 1.02 |
| GAAAAACGTT | 1.04 |
| GAAAAAGTTG | 0.879 |
| GAAAACAGCG | 1.05 |
| GAAAACGGAC | 1.26 |
| GAAAAGACGT | 0.957 |
| GAAAAGCGGG | 0.969 |
| GAAAAGTCCG | 1.02 |
| GAAAAGTCTT | 1 |
| GAAACCACGC | 1.66 |
| GAAACGCTGA | 1.04 |
| GAAACGTAAC | 1.36 |
| GAAACTCAGG | 1.04 |
| GAAACTGCGC | 1 |
| GAAACTTCAG | 0.973 |
| GAAAGAACGG | 1.08 |
| GAAAGAGGTC | 1.04 |
| GAAAGGACAG | 0.983 |
| GAAAGGAGCG | 1.03 |
| GAAAGGCAGC | 0.963 |

| Sequence | switch fluorescence ratio |
| --- | --- |
| GAAAGGTTTG | 1.44 |
| GAAAGTAGTT | 0.969 |
| GAAAGTATTC | 0.977 |
| GAAATAGACG | 0.995 |
| GAAATAGCCT | 1.2 |
| GAAATATTGA | 1.05 |
| GAAATCAGAT | 0.981 |
| GAAATCGGCG | 1.01 |
| GAAATCTTCC | 2.82 |
| GAAATGATAC | 1.07 |
| GAAATGCCCA | 0.984 |
| GAAATGGATT | 0.981 |
| GAACACAGTC | 0.984 |
| GAACACGAAC | 1.53 |
| GAACAGGGAG | 1.03 |
| GAACCCGCCC | 1.38 |
| GAACCGAAGG | 0.906 |
| GAACCGGTCG | 1.02 |
| GAACCTAGGA | 0.99 |
| GAACGCATCT | 2.16 |
| GAACGCTAGT | 0.931 |
| GAACGTCCC | 1.08 |
| GAACGTTTAG | 1.02 |
| GAACTACGT | 0.981 |
| GAACTGGTGC | 1.13 |

| Sequence | switch fluorescence ratio |
| --- | --- |
| GAACTGTCAT | 0.971 |
| GAACTTACG | 1.32 |
| GAACTTAGCG | 0.938 |
| GAACTTGGAG | 1.03 |
| GAACTTGTTC | 0.98 |
| GAACTTTTTG | 1 |
| GAAGAACGCA | 1.18 |
| GAAGAACTAC | 1.3 |
| GAAGAACTAG | 1.04 |
| GAAGAGGCGG | 0.987 |
| GAAGATCCGC | 1.17 |
| GAAGATGCGC | 0.979 |
| GAAGCAATTG | 1.02 |
| GAAGCAGGAG | 1.76 |
| GAAGCCCCCG | 2.15 |
| GAAGCCCGTG | 0.987 |
| GAAGCGACGT | 1.04 |
| GAAGCGGCTA | 1.02 |
| GAAGCGTTC | 1.38 |
| GAAGCGTTCG | 1 |
| GAAGCTAAAT | 1.08 |
| GAAGGGAGCC | 0.979 |
| GAAGGGAGGG | 0.968 |
| GAAGGGATAG | 1.03 |
| GAAGGGGT | 0.997 |

| Sequence | switch fluorescence ratio |
| --- | --- |
| GAAGTCAAGT | 1 |
| GAAGTCTAAA | 0.995 |
| GAAGTCTTGT | 0.957 |
| GAAGTGCCCT | 1.04 |
| GAAGTTTCGG | 0.993 |
| GAAGTTTCTT | 0.997 |
| GAATAAAGCG | 1.02 |
| GAATAATTGT | 0.928 |
| GAATACCTTG | 1.04 |
| GAATACTTAA | 0.994 |
| GAATATATTC | 0.985 |
| GAATATGTAC | 1.14 |
| GAATCAGGTC | 0.988 |
| GAATCCAGAG | 1.02 |
| GAATCGAGGG | 0.975 |
| GAATCGCACC | 1.51 |
| GAATCGCCCG | 1 |
| GAATCGGTAC | 1.07 |
| GAATCTATTA | 1.01 |
| GAATCTGCAC | 1.47 |
| GAATGAATGG | 0.974 |
| GAATGACGAG | 0.975 |
| GAATGACTCG | 1.04 |
| GAATGACTTT | 0.984 |
| GAATGAGGTC | 1 |

| Sequence | switch fluorescence ratio |
| --- | --- |
| GAATGCGAAA | 0.985 |
| GAATGGAATA | 1 |
| GAATGTGCCC | 1.04 |
| GAATGTGGAG | 0.996 |
| GAATGTGTG | 0.95 |
| GAATGTTTGC | 0.932 |
| GAATTATTTC | 0.973 |
| GAATTCGATG | 1 |
| GAATTGCCTG | 1.06 |
| GAATTGCGAG | 0.938 |
| GAATTGCTCT | 0.949 |
| GAATTTATC | 1.01 |
| GACAAAAGC | 1.05 |
| GACAACAGGG | 1.16 |
| GACAACCG | 0.966 |
| GACAAGAAGA | 1.08 |
| GACAAGGGTG | 1.06 |
| GACAATACGC | 2.09 |
| GACAATGGGA | 1.21 |
| GACAATTGCA | 1.03 |
| GACACAACTC | 1.26 |
| GACACAAGAT | 1.18 |
| GACACCACGA | 1.48 |
| GACACCCTTC | 1.1 |
| GACACCGGAA | 2.09 |

| Sequence | switch fluorescence ratio |
| --- | --- |
| GACACCGGGA | 1.01 |
| GACACCTATT | 1.08 |
| GACACCTTTA | 1.07 |
| GACAGCATCG | 1.11 |
| GACAGGAGCA | 1.09 |
| GACAGTAGTG | 0.991 |
| GACATAATAT | 1.06 |
| GACATACTTC | 1.4 |
| GACATAGGA | 1.02 |
| GACATCATTA | 1.02 |
| GACATCGCAC | 1.89 |
| GACATGTGGG | 0.985 |
| GACATTACAA | 1.2 |
| GACATTACCA | 1.22 |
| GACATTATTT | 0.994 |
| GACATTGATC | 1 |
| GACATTGCTA | 1.03 |
| GACCAAATAG | 1.07 |
| GACCAAATGG | 1.09 |
| GACCAACGTG | 0.995 |
| GACCACTCAT | 1.04 |
| GACCAGCGAG | 1 |
| GACCAGCGCA | 1.04 |
| GACCATAGGG | 1.06 |
| GACCATAGGT | 0.989 |

| Sequence | switch fluorescence ratio |
| --- | --- |
| GACCATGTTA | 1.02 |
| GACCCAACGA | 1.31 |
| GACCCATGGA | 1.02 |
| GACCCCGTGG | 1.02 |
| GACCCCTACC | 1.48 |
| GACCCTTGTT | 1.04 |
| GACCCTTTTG | 0.966 |
| GACCGCCCCC | 2.11 |
| GACCGCGCCC | 1.86 |
| GACCGCGTAA | 1.39 |
| GACCGCTACA | 1.49 |
| GACCGGGATT | 1.02 |
| GACCGGGCAA | 1.05 |
| GACCGGTTTC | 0.99 |
| GACCGGTTTT | 0.975 |
| GACCGTTCGA | 0.998 |
| GACCTAATCT | 1.06 |
| GACCTCATTC | 1.03 |
| GACCTCCCTG | 1.02 |
| GACCTCCTAA | 1.2 |
| GACCTCTTAT | 0.997 |
| GACCTGATAT | 1.03 |
| GACCTTCGTT | 1.18 |
| GACCTTTTGC | 1.04 |
| GACGACAATA | 4.79 |
